{
  "source": "the supplement of paper PMC3334620",
  "note": "Whole data set: some 33,000 sequences, median “E-score (-0.5 to 0.5)” near -0.036, cut for the highest 2% near 0.37. The list shows a part of the results.",
  "data": [
    {"biological_target": "T1, Yer064c (UniProt P40041)", "T1 sequence": "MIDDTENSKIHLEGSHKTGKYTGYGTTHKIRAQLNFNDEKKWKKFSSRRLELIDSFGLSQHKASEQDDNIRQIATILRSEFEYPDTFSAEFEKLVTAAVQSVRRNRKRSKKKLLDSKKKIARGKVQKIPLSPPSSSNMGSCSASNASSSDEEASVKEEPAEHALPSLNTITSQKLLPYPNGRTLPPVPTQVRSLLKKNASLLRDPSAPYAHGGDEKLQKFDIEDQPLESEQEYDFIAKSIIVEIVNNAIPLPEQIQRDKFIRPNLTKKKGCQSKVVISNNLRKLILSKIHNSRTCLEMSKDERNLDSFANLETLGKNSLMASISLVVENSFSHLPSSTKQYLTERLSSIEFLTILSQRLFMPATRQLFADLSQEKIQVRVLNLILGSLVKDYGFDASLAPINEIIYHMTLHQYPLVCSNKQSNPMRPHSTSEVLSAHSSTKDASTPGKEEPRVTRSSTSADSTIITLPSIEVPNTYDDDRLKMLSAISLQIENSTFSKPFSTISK", "experiment": "PBM E-score (8-mer binding enrichment) (E-score (-0.5 to 0.5)); higher = stronger / more preferred TF binding; most listed sequences are background and not binding sites", "settings": "protein concentration: 200 nM; construct: GST-full length", "in_short": "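Detection of bound protein used fluorescent anti-GST, with scans normalised by masliner. The proteins were GST-tagged yeast transcription factors applied at about 100-200 nM to universal all-10-mer Agilent arrays made double-stranded by primer extension. Each ungapped eight-base word, pooled with its reverse complement, was scored with an E-score from the Universal PBM Analysis Suite.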", "values": [
      {"sequence": "ATAAGACC", "PBM E-score": -0.0423},
      {"sequence": "CAGCCAGC", "PBM E-score": -0.181},
      {"sequence": "ACCGGCCT", "PBM E-score": -0.188},
      {"sequence": "AACCTTGA", "PBM E-score": 0.0951},
      {"sequence": "CGCCGGAA", "PBM E-score": -0.145},
      {"sequence": "GACACCAA", "PBM E-score": -0.00346},
      {"sequence": "CTGTCCCC", "PBM E-score": -0.201},
      {"sequence": "CTTACTTC", "PBM E-score": 0.0114},
      {"sequence": "CGAAAGTA", "PBM E-score": 0.0513},
      {"sequence": "GGTCTGAC", "PBM E-score": 0.235},
      {"sequence": "CTGTCCAA", "PBM E-score": -0.239},
      {"sequence": "GGGCGCCA", "PBM E-score": -0.326},
      {"sequence": "CCACCCTA", "PBM E-score": -0.0978},
      {"sequence": "GACTCGGA", "PBM E-score": 0.351},
      {"sequence": "CCATTTCG", "PBM E-score": -0.0764},
      {"sequence": "CCGATTAG", "PBM E-score": -0.12},
      {"sequence": "AACATAAC", "PBM E-score": -0.106},
      {"sequence": "CCATTTAG", "PBM E-score": -0.0338},
      {"sequence": "ATCCTGGG", "PBM E-score": -0.0196},
      {"sequence": "TCTTGTAA", "PBM E-score": 0.113},
      {"sequence": "CACCTGGA", "PBM E-score": -0.106},
      {"sequence": "CTCGGTTA", "PBM E-score": 0.0632},
      {"sequence": "ACGGAAGG", "PBM E-score": -0.28},
      {"sequence": "CTATCAAA", "PBM E-score": 0.00494},
      {"sequence": "TCAAGCCA", "PBM E-score": 0.17},
      {"sequence": "CCCCGAGC", "PBM E-score": -0.0415},
      {"sequence": "CTCCGGGC", "PBM E-score": -0.116},
      {"sequence": "AGATGCTG", "PBM E-score": -0.141},
      {"sequence": "GAAAGGTA", "PBM E-score": -0.0333},
      {"sequence": "GCGTGCCC", "PBM E-score": -0.242},
      {"sequence": "CCTACGAG", "PBM E-score": 0.0278},
      {"sequence": "CCTAGAGA", "PBM E-score": 0.0432},
      {"sequence": "AAAAACCC", "PBM E-score": -0.204},
      {"sequence": "CTAGTGTA", "PBM E-score": 0.0423},
      {"sequence": "GCAGCTGC", "PBM E-score": -0.371},
      {"sequence": "TCGGCGCA", "PBM E-score": -0.323},
      {"sequence": "GATGCTCC", "PBM E-score": -0.345},
      {"sequence": "GTTTCATA", "PBM E-score": -0.116},
      {"sequence": "AACTTCGG", "PBM E-score": -0.114},
      {"sequence": "CGCAACGA", "PBM E-score": 0.0597},
      {"sequence": "ATTTCAGA", "PBM E-score": 0.0892},
      {"sequence": "TTCGGCAA", "PBM E-score": 0.058},
      {"sequence": "CAGATGCG", "PBM E-score": -0.0493},
      {"sequence": "AAACTAGG", "PBM E-score": -0.0737},
      {"sequence": "CTCAAAAA", "PBM E-score": 0.113},
      {"sequence": "GGTCCCCA", "PBM E-score": -0.256},
      {"sequence": "GTTGAACA", "PBM E-score": -0.183},
      {"sequence": "CGTTCCAA", "PBM E-score": -0.0629},
      {"sequence": "TAAGAAAA", "PBM E-score": 0.0433},
      {"sequence": "GCCCGTAC", "PBM E-score": -0.306},
      {"sequence": "CCACAAAC", "PBM E-score": 0.00979},
      {"sequence": "AGCCCTCA", "PBM E-score": -0.239},
      {"sequence": "GGTCTGCA", "PBM E-score": -0.173},
      {"sequence": "CGCTACGC", "PBM E-score": -0.323},
      {"sequence": "ACGCTCAT", "PBM E-score": -0.139},
      {"sequence": "ATTTCGGG", "PBM E-score": -0.155},
      {"sequence": "AAAGGGAC", "PBM E-score": -0.00724},
      {"sequence": "ACTGGTAT", "PBM E-score": -0.142},
      {"sequence": "ACTCGACA", "PBM E-score": 0.148},
      {"sequence": "CTTTATAA", "PBM E-score": 0.0334},
      {"sequence": "CGGCGTAG", "PBM E-score": -0.104},
      {"sequence": "ACATTTAC", "PBM E-score": -0.0584},
      {"sequence": "ACAATTGC", "PBM E-score": -0.134},
      {"sequence": "CTACGATC", "PBM E-score": -0.0886},
      {"sequence": "ACCGGGTC", "PBM E-score": -0.107},
      {"sequence": "CGTTTTTA", "PBM E-score": 0.0687},
      {"sequence": "GGGCATAC", "PBM E-score": -0.0646},
      {"sequence": "CTAAAGGC", "PBM E-score": -0.0256},
      {"sequence": "CCTAGTGA", "PBM E-score": 0.0002},
      {"sequence": "ATTCAGAC", "PBM E-score": 0.158},
      {"sequence": "CTCTGTCA", "PBM E-score": -0.0955},
      {"sequence": "CCCTGCGA", "PBM E-score": 0.0409},
      {"sequence": "CGTCGCAA", "PBM E-score": -0.0904},
      {"sequence": "CGTCGGCA", "PBM E-score": -0.123},
      {"sequence": "CGGCGTGA", "PBM E-score": 0.164},
      {"sequence": "AGGGTGCA", "PBM E-score": -0.218},
      {"sequence": "CCTACCAA", "PBM E-score": -0.0734},
      {"sequence": "AACTTGAA", "PBM E-score": -0.0305},
      {"sequence": "CTTTCTGA", "PBM E-score": 0.0307},
      {"sequence": "AAATCACC", "PBM E-score": 0.328},
      {"sequence": "AATCCGCT", "PBM E-score": -0.154},
      {"sequence": "GTCAAAGA", "PBM E-score": 0.202},
      {"sequence": "GCACAGGA", "PBM E-score": -0.0012},
      {"sequence": "GGATATAC", "PBM E-score": -0.0194},
      {"sequence": "ACAGCTCA", "PBM E-score": -0.0698},
      {"sequence": "TACGTAGA", "PBM E-score": 0.137}
    ]}
  ]
}
